Source: publication PMC4336329 (PLoS ONE, 2015)
Among all 310,000 compounds or so, about 2,200 (0.71%) showed an effect of 50% or more. Effects have a minus sign here. The list shows a part of the results.

molecular target: human ether-à-go-go-related gene (hERG) potassium channel (human, UniProt Q12809); assay: primary screen, population patch clamp on CHO cells stably expressing hERG
Sequence (Q12809 whole entry, looked up): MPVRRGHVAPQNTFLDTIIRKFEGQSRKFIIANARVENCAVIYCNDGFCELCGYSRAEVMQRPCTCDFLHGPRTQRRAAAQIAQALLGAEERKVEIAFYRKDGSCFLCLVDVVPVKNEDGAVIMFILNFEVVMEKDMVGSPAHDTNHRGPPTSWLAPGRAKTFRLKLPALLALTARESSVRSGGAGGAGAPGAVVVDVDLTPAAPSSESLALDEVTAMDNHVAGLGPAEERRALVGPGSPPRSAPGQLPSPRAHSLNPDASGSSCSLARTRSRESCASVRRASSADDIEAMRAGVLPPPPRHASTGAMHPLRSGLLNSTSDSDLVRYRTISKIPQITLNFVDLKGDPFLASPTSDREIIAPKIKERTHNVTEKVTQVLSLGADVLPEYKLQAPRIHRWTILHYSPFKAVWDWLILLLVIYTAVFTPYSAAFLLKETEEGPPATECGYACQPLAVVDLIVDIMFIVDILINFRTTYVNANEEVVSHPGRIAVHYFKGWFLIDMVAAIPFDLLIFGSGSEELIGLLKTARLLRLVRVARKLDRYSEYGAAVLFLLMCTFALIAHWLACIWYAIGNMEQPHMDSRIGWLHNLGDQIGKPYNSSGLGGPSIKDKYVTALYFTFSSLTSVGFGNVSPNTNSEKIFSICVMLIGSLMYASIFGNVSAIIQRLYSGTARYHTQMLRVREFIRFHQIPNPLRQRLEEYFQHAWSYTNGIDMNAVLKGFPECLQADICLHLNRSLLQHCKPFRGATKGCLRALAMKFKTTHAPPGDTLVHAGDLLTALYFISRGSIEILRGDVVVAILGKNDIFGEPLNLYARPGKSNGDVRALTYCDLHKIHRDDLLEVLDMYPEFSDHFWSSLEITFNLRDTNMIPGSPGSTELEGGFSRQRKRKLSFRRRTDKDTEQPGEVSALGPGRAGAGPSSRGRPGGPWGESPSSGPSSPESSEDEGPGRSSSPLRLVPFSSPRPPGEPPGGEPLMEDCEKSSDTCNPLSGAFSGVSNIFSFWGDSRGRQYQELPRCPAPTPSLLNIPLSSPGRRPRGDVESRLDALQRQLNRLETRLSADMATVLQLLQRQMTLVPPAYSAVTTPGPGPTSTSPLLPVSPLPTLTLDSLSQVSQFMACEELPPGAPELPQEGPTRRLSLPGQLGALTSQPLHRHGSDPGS

SMILES	hERG current change (%, negative = inhibition) at 1uM [%]
CCOC(=O)CSc1nc(N)c(C#N)c(CC(C)C)c1C#N	-1.12
COc1ccc(OC)c(C2=Nn3c(nnc3C3CCCCC3)SC2)c1	0.609
Nc1nnc(SCC(=O)NCCOc2ccccc2)s1	5.15
COc1cccc(/C=N/NC(=O)c2ccccc2N(Cc2ccccc2)S(=O)(=O)c2ccccc2)c1OC	0.976
O=C(CSC1=Nc2ccccc2C2CC=NN12)Nc1ccc(F)c(F)c1F (stereo not drawn)	-2.96
O=C(Nc1ccc(NC(=O)c2ccc([N+](=O)[O-])cc2[N+](=O)[O-])cc1)c1ccco1	13.5
O=C(CSc1nnc(Cc2ccccc2)n1C1CCCCC1)N1CCOCC1	-3.9
C/C(=C1/SC(N2CC(C)OC(C)C2)=NC1=O)c1ccccc1 (stereo not drawn)	2.64
CC12CC3CC(C)(C1)CC(NCc1ccncc1)(C3)C2.Cl	-4.25
Cc1cc(NC(=O)CSc2nnc(-c3ccco3)n2Cc2ccco2)no1	-6.42
O=C(COC(=O)c1ccccc1O)Nc1ncc(Cl)cc1Cl	13.7
COc1ccc(/C=N/Nc2cc(C)nc3c(C)cccc23)cc1	-18
CCOC(=O)C(NC(=O)CC)(Nc1ccccc1OC)C(F)(F)F (stereo not drawn)	14.2
COc1ccc(NC(=O)c2oc3ccccc3c2NC(=O)C2CC2)cc1	-16.2
CCC(=O)Nc1ccc(C(=O)N/N=C/c2cccnc2)cc1	9.46
CCC(OC(=O)c1cc2sccc2n1C)C(=O)NCC1CCCO1 (stereo not drawn)	12.2
Cc1cccc(-n2c(O)c(C=Nc3ccc(O)cc3)c3ccccc3c2=O)n1	0.494
COc1cccc(CNC(=O)CCCn2nc(C)n3c(cc4sccc43)c2=O)c1	8.47
COc1cc(C)nc(N2CCCC(C(=O)Nc3ccccc3Br)C2)n1 (stereo not drawn)	15.3
CCc1ccc(NC(=O)NCCN2CCc3ccccc3C2)cc1	-1.46
COc1ccc(NC(=O)CCNS(=O)(=O)c2cc(Br)ccc2Br)cc1S(N)(=O)=O	14.2
O=c1cc(C(F)(F)F)oc2c1ccc1ccccc12	12.8
CC(C)C(c1nnnn1Cc1ccc(F)cc1)N1CCN(C2CCCC2)CC1 (stereo not drawn)	-3.74

SMILES	hERG current change (%, negative = inhibition) at 1uM [%]
CCCCOc1ccc(OC(=O)Nc2cc(Cl)ccc2OC)cc1	15.8
CC(C)CNC(=O)C(=O)Nc1cc2c3c(c1)CCC(=O)N3CCC2	11.4
CCCCOc1ccc(/C=N/NC(=O)c2nnn(-c3nonc3N)c2C)cc1	16.1
CCCC/C=C/[C@H](c1ccccc1)[C@H](CO)Cc1cccnc1	7.36
COc1ccccc1-n1c(CCC(=O)O)ccc1-c1ccccc1	-0.0386
CCOC(=O)c1ccc(N2C(=O)CC(N3CC(C)OC(C)C3)C2=O)cc1 (stereo not drawn)	3.6
COc1cc(C(CC(=O)O)n2cnnn2)ccc1OC(C)C (stereo not drawn)	5.15
CCOC(=O)C1=C(C)NC2=C(C(=O)CCC2)C1c1cccs1 (stereo not drawn)	2.35
CCN(CC)CCCN(Cc1cc2cc3c(cc2[nH]c1=O)OCCO3)C(=O)Nc1ccc(F)cc1	-14.8
NS(=O)(=O)c1ccc(NC(=O)COc2ccc(Cl)cc2)cc1	-3.24
COc1cccc(NC(=O)CCC2CCN(C(=O)c3sccc3C)CC2)c1	10.7
O=C(Nc1ccccc1F)c1ccc(CN2CCc3ccccc3C2)cc1	13.6
CCN(c1cccc(C)c1)c1ncnc2nc[nH]c12	13.4
O=C1NC(c2ccccc2)=C(c2nc3ccccc3s2)C(c2ccc(O)cc2)N1 (stereo not drawn)	8.7
CC(OC(=O)C1CC1)C(=O)Nc1ncc(Cl)cc1Cl (stereo not drawn)	15.1
COc1cccc(CC(NC(C)=O)C(=O)NC2CCN(S(=O)(=O)c3ccc(F)cc3)CC2)c1OC (stereo not drawn)	15.3
COc1cc(C)c(C(C)C)cc1S(=O)(=O)NC1CC(C)(C)NC(C)(C)C1	6.42
COc1cc2cc(CCCOC(=O)c3cccc(Br)c3)oc(=O)c2cc1OC	11.4
CCOc1ccccc1CNC(=O)CCN1C(=O)COc2ccccc21	11.4
c1ccc(Cc2nnc(-c3ccccc3)o2)cc1	10.4
CCOC(=O)c1c[nH]c2ccc3ccccc3c2c1=O	16.9
CCCCOC(=O)c1ccc(NC(=O)CN2C(=O)NC3(CCCCCC3)C2=O)cc1	5.84
CCCCn1c(=O)[nH]c(=O)c2c1nc(-c1ccc([N+](=O)[O-])cc1)n2CC	3.84

SMILES	hERG current change (%, negative = inhibition) at 1uM [%]
CN(C)c1ccc(NC(=O)Oc2ccccc2)cc1	12.9
CCCCCn1c(=O)[nH]c2cc(C(=O)NCCCN3CCC(C)CC3)ccc2c1=O	6.13
O=C(Oc1cc2oc(=O)c3c(c2cc1Cl)CCCC3)c1ccco1	6.03
O=[N+]([O-])c1cnccc1Nc1ccc(Cl)cc1	4.46
Cn1c(=O)n(C)c2cc(/C=N/N=C3/NC(=O)C(CC(=O)O)S3)ccc21 (stereo not drawn)	13.3
CCCCC1CC1C(=O)Nc1ncc2c(n1)CC(C)(C)CC2=O (stereo not drawn)	-20.4
COc1cc(CNc2nc3ccccc3n2C)cc(OC)c1OC	11.6
O=C(CC1C(=O)NCCN1Cc1cccc(F)c1F)NC1CCCCCC1 (stereo not drawn)	3.66
Cl.Oc1ccc(Cl)cc1CNCc1ccc(F)c(F)c1	11.6
CCCc1ccc(S(=O)(=O)N2CCN(C(C)C(=O)NCc3ccc(OC)cc3)CC2)cc1 (stereo not drawn)	-13.9
O=C(NNC(=S)Nc1ccc(Cl)cc1Cl)c1ccncc1	14.1
COc1ccccc1/C=N/OCc1ccc(C#N)cc1	11.4
CCOC(=O)c1cccc(C2=CC(=O)C[C@H](c3ccc(Cl)cc3)C2)c1	7.61
CCOC(=O)c1ccc(CSc2nnc(N)s2)cc1	5.39
O=C(CSc1nnc(CNc2ccc(F)cc2)n1Cc1ccccc1)N1CCOCC1	5.64
Cc1cc(C)n(C/C=C/Cn2nc(C)cc2C)n1	-13.6
COc1ccc(Nc2nc(NC(C)(C)C)nc(N3CCOCC3)n2)c(OC)c1	-1.4
CCC(C)Nc1nc2c(c(=O)n(C)c(=O)n2C)n1C (stereo not drawn)	12.2
Cc1cc(C)n2nc(SCc3nnc(-c4cccs4)o3)nc2n1	11
CCC1CCCCN1C(=O)CCc1nnc(Cc2c[nH]c3ccccc23)o1 (stereo not drawn)	8.72
COc1cccc(NC(=O)NNC(=O)c2ccc3c(c2)NC(=O)C(C)(C)O3)c1	19
Cc1ccc(NC(=O)CSc2nc3c(c(=O)[nH]2)CCC3)c(C)c1	15.1
CC(C)NC(=S)NC(=O)c1ccc(-c2ccccc2)cc1	5.54

SMILES	hERG current change (%, negative = inhibition) at 1uM [%]
Cc1sc(NC(=O)c2ccco2)c(C(c2cccnc2)N2CCN(C)CC2)c1C (stereo not drawn)	-2.64
CC(NC(=O)CCCc1ccccc1)c1ccncc1 (stereo not drawn)	0.702
O=C(CCn1nc(-c2ccc(Cl)cc2)ccc1=O)N1CCN(c2ccc(F)cc2)CC1	-3.84
CCCn1c(SCC(=O)NCCc2ccccc2)nnc1-c1ccco1	5
CCOc1ccc(NC(=O)Cn2nnc(C(=O)NCc3ccco3)c2N)cc1	13.1
Br.Cn1c(=N)n(CC(=O)c2ccc(F)cc2)c2ccccc21	3.87
O=[N+]([O-])c1ccc(NC2CCCC2)c2ccncc12	3.68
Nc1nncn1C(=O)c1cccs1	4.4
CCOC(=O)c1cc2c(ccn2C)n1CC(=O)N1CCN(c2ccc(F)cc2)CC1	14.3
COc1cc(OC)c(NC2c3ccccc3C(=O)N2c2cc(C)ccn2)cc1Cl (stereo not drawn)	6.56
CC1(C)CC(=O)C=C(NCCN2CCN(C(=O)Nc3ccc(Cl)cc3)CC2)C1	5.78
CCOC(=O)C1(C)NC(c2cccs2)C2C(=O)N(c3ccc(OC)cc3)C(=O)C21 (stereo not drawn)	5.74
O=C(CNC(=O)c1ccc(Br)o1)NNC(=O)c1ccc(Cl)cc1	4.58
O=C(O)c1ccc2c(c1)-c1cc(C(=O)O)ccc1S2(=O)=O	13.8
COc1ccc(S(=O)(=O)n2cccc2)c(OC)c1	12.9
CN(C)S(=O)(=O)c1ccc2c(c1)c(=O)c(C(=O)N1CCN(c3ccccn3)CC1)cn2C	16.1
NS(=O)(=O)c1ccc(N=Nc2c(O)ccc3ccccc23)cc1	0.2
O=C(N/N=C/c1c(O)n(Cc2ccccc2)c(=O)[nH]c1=O)c1ccncc1	14.6
CCOc1ccccc1N1CC(C(=O)N(C)Cc2cccnc2)CC1=O (stereo not drawn)	11.9
CC1CCCCN1Cc1c(O)ccc2c(=O)c(-c3nc4ccccc4s3)c(N)oc12 (stereo not drawn)	5.23
Cc1ccccc1NC(=O)N1CCCC(c2nc(-c3ccc(F)cc3)no2)C1 (stereo not drawn)	-0.93
